Data from PubChem BioAssay (NCATS).
The inconclusive results got no clear call from the source; some entries with a clear call stand among them for comparison. The source made the active and inactive calls. The call rests on the fitted dose curve; in most records, active means well fitted curve in either direction with a large enough effect (not every such curve was filed as active); inconclusive means small, poorly fitted or top-dose-only effect, or another doubt; inactive means flat fitted curve, though single readings scatter.

Assay: NFAT Signaling Pathway (AID 444);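 further: carbachol stimulus at about its EC50 of 1 µM final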
Conditions: Jurkat NFAT-bla M1, carbachol, beta-lactamase ratio, 5 h; at 17.2 µM (top of the series) unless noted
How it was run: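 Jurkat cells carrying an NFAT-driven β-lactamase reporter and co-transfected muscarinic M1 receptor were treated with compound plus carbachol (1 uM final, an EC50 level) for 5 h at 37 °C. CCF4 loading followed for 1 h at RT; 460/530 nm ratio gave %activity.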
On the % scale 0 is the no-effect control and ±100 the full control effect.

**Q.** For `Cn1c(SCC(=O)N2CCOCC2)nnc1-c1ccc(Cl)cc1Cl`, which activity change, negative = inhibition is on record?
**A.** inactive: -5.6%

**Q.** Which activity change, negative = inhibition does the source give for `CCNC(=O)Nn1c(C)nnc1C` here?
**A.** inactive: -5.86%

**Q.** For `Cc1c2c([n+]3n1CCC3)CC(C)(C)CC2=O`, which activity change, negative = inhibition is on record?
**A.** inactive: -9.27%

**Q.** For `O=C(NCCN1CCCCC1)/C(=N\O)c1ccccc1`, which activity change, negative = inhibition is on record?
**A.** inconclusive: -20.4% [inhibitor]

**Q.** For `CC(C)NC(=O)N1CC[C@@]2(CCCN(S(=O)(=O)c3ccccc3)C2)C1`, which activity change, negative = inhibition is on record?
**A.** inactive: 18.4% [at 7.69 µM]

**Q.** For `O=C(O)[C@H]1CCCC[C@@H]1C(=O)Nc1nc2ccccc2[nH]1`, which activity change, negative = inhibition is on record?
**A.** inactive: 9.82% [at 7.69 µM]

**Q.** For `COc1ccc(-c2nc3cnc(Oc4cccc(Cl)c4)nc3n(CCC#N)c2=O)cc1`, which activity change, negative = inhibition is on record?
**A.** inconclusive: -43.3% [inhibitor] [at 7.69 µM]

**Q.** For `CCOC(=O)c1[nH]c2ccc(F)cc2c1NC(=O)CCN1CCSCC1`, which activity change, negative = inhibition is on record?
**A.** inconclusive: -74.2% [inhibitor]

**Q.** Which activity change, negative = inhibition does the source give for `CCOC(=O)COc1nc(N(C)C)nc(N(C)C)n1` here?
**A.** inactive: -1.43%

**Q.** With `COc1ccc(OC)c(C2/C(=C(/O)c3cnn(-c4ccccc4)c3C)C(=O)C(=O)N2CCN(C)C)c1` (centres undefined) as the compound, how does the activity change, negative = inhibition read?
**A.** inactive: 4.77%

**Q.** Which activity change, negative = inhibition does the source give for `O=C(O)c1cccc(C[C@H](Br)C(=O)O)c1` here?
**A.** inactive: 14.3% [at 7.69 µM]

**Q.** Which activity change, negative = inhibition does the source give for `COc1c2c(c3c(c1CCC(=O)O)OC(C)(C)C=C3)OC(C)(C)C=C2` here?
**A.** inactive: 13.1% [at 7.69 µM]

**Q.** Which activity change, negative = inhibition does the source give for `O[C@H](CNc1ccccn1)c1ccccc1` here?
**A.** inconclusive: -54.3% [inhibitor] [at 7.69 µM]

**Q.** Which activity change, negative = inhibition does the source give for `O=C1C2C3C=CC(C2C(=O)N1CN1CCOCC1)C1C2C(=O)N(CN4CCOCC4)C(=O)C2C31` (centres undefined) here?
**A.** inactive: 6.33% [at 7.69 µM]
